At least one read-out could not be matched to a standard name with certainty.
Test system: 293T cells
Test: Fluorescent detection of Fluc-mRNA (cell transfection efficiency of LNP formulations)
Format: cell-based
Details: for Multiple of YK-402: RLU of YK-402 divided by RLU of the lipid named in the row; for Multiple of YK-403: RLU of YK-403 divided by RLU of the lipid named in the row; for Multiple of YK-407: RLU of YK-407 divided by RLU of the lipid named in the row; for Multiple of YK-422: RLU of YK-422 divided by RLU of the lipid named in the row; for Multiple of YK-423: RLU of YK-423 divided by RLU of the lipid named in the row; for Ratio relative to SM-102 (RLU, times that of SM-102): RLU of the lipid divided by RLU of SM-102
Protocol: Seeding plate: The cells in the culture dish were digested and counted. Cells were spread in a 96-well plate at 10,000 cells per well and in a 12-well plate at 150,000 cells per well. Cells were cultured overnight until the cells adhered to the wall.
The corresponding reagents were added according to the instructions of the Gaussia Luciferase Assay Kit, and the fluorescence expression intensity of each well was detected by an IVIS fluorescence detection system.

Compound | Multiple of YK-401 | Multiple of YK-402 | Multiple of YK-403 | Multiple of YK-407 | Multiple of YK-422 | Multiple of YK-423 | Ratio relative to SM-102 (RLU, times that of SM-102)
CCCCCCCCCCOC(=O)CCCCCN(CCO)CCCN(CCO)CCCCCC(=O)OCC(CCCCCCCC)CCCCCCCC [YK-416, decyl 6-((2-hydroxyethyl)(3-((2-hydroxyethyl)(6-((2-octyldecyl)oxy)-6-oxohexyl)amino)propyl)amino)hexanoate] | 1.41 | 1.27 | 1.32 | 5.13 | 1.62 | 1.57 | 2.33
CCCCCCCCC(CCCCCCCC)COC(=O)CCCCCN(CCCO)CCCCN(CCCO)CCCCCC(=O)OCC(CCCCCCCC)CCCCCCCC [YK-424, bis(2-octyldecyl) 6,6′-(butane-1,4-diylbis((3-hydroxypropyl)azanediyl))dihexanoate] | 1.95 | 1.75 | 1.82 | 7.07 | 2.23 | 2.16 | 1.69
CCCCCCCCCCCOC(=O)CCCN(CCO)CCN(CCO)CCCCCC(=O)OCC(CCCCCCCC)CCCCCCCC [YK-409, 2-octyldecyl 6-((2-hydroxyethyl)(2-((2-hydroxyethyl)(4-(undecyloxy)-4-oxobutyl)amino)ethyl)amino) hexanoate] | 8.37 | 7.53 | 7.84 | 30.43 | 9.60 | 9.30 | 0.39
CCCCCCCCC(CCCCCCCC)OC(=O)CCCCCCCN(CCO)CCN(CCO)CCCCCCCC(=O)OC(CCCCCCCC)CCCCCCCC [YK-403, di(heptadecan-9-yl) 8, 8′-(ethane-1,2-diyl-bis((2-hydroxyethyl)azanediyl))dioctanoate] | 1.07 | 0.96 | 1.00 | 3.88 | 1.23 | 1.19 | 
CCCCCCCCCCOC(=O)CCCCCN(CCO)CCCN(CCO)CCCCCC(=O)OCCC(CCCCCC)CCCCCC [YK-417] | 47.83 | 43.01 | 44.76 | 173.81 | 54.85 | 53.09 | 0.07
CCCCCCCCC(CCCCCCCC)OC(=O)CCCCCN(CCO)CCCN(CCO)CCCCCC(=O)OC(CCCCCCCC)CCCCCCCC [YK-419, di(heptadecan-9-yl) 6,6′-(propane-1,3-diyl-bis((2-hydroxyethyl)azanediyl))dihexanoate] | 1.77 | 1.59 | 1.66 | 6.44 | 2.03 | 1.97 | 1.86
CCCCCCCCCCOC(=O)CCCN(CCO)CCN(CCO)CCCC(=O)OC(CCCCCCCC)CCCCCCCC [YK-408, heptadecan-9-yl 4-((2-hydroxyethyl)(2-((2-hydroxyethyl)(4-(decyloxy)-4-oxobutyl)amino)ethyl)amino)butyrate] | 3.81 | 3.42 | 3.56 | 13.83 | 4.36 | 4.22 | 0.87
CCCCCCCCC(CCCCCCCC)C(=O)OCCCCCCN(CCO)CCN(CCO)CCCCCCOC(=O)C(CCCCCCCC)CCCCCCCC [YK-402] | 1.11 | 1.00 | 1.04 | 4.04 | 1.28 | 1.23 | 
CCCCCCCCCCCCC(O)CN(C)CCCCCC(=O)OCC(CCCCCC)CCCCCCCC (stereo not shown) [HHMA, reference compound] | 2.70 | 2.43 | 2.52 | 9.81 | 3.09 | 3.00 | 1.22
CCCCCCCCC(CCCCCC)C(=O)OCCCCCCN(CCCCO)CCCCCCOC(=O)C(CCCCCC)CCCCCCCC (stereo not shown) [ALC-0315, reference compound] | 2.56 | 2.30 | 2.40 | 9.31 | 2.94 | 2.84 | 1.28
CCCCCCCCCCCOC(=O)CCCCCN(CCO)CCCCCCCC(=O)OC(CCCCCCCC)CCCCCCCC [SM-102, reference compound] | 3.29 | 2.96 | 3.08 | 11.96 | 3.77 | 3.65 | 1.00
CCCCCCCCC(CCCCCCCC)OC(=O)CCCCCN(CCO)CCCCN(CCO)CCCCCC(=O)OC(CCCCCCCC)CCCCCCCC [YK-420, di(heptadecan-9-yl) 6,6′-(butane-1,4-diylbis((2-hydroxyethyl)azanediyl))dihexanoate] | 1.40 | 1.25 | 1.31 | 5.07 | 1.60 | 1.55 | 2.36
CCCCCCCCC(CCCCCCCC)OC(=O)CCCCCN(CCO)CCN(CCO)CCCCCC(=O)OC(CCCCCCCC)CCCCCCCC [YK-401, di(heptadecan-9-yl) 6,6′-(ethane-1,2-diyl-bis((2-hydroxyethyl)azanediyl))dihexanoate] | 1.00 | 0.90 | 0.94 | 3.63 | 1.15 | 1.11 | 
CCCCCCCCC(CCCCCCCC)COC(=O)CCCCCN(CCCO)CCCN(CCCO)CCCCCC(=O)OCC(CCCCCCCC)CCCCCCCC [YK-423, di(2-octyldecyl) 6,6′-(propan-1,3-diyl-bis((3-hydroxypropyl)azanediyl))dihexanoate] | 0.90 | 0.81 | 0.84 | 3.27 | 1.03 | 1.00 | 
CCCCCCCCCCOC(=O)CCCN(CCO)CCCN(CCO)CCCCCCOC(=O)CC(CCCCCC)CCCCCC [YK-418, 6-((3-((4-(decyloxy)-4-oxobutyl)(2-hydroxyethyl)amino)propyl)(2-hydroxyethyl)amino)hexyl 3-hexylnonanoate] | 50.42 | 45.34 | 47.18 | 183.24 | 57.82 | 55.97 | 0.07
CCCCCC(CC)OC(=O)CCCCCCCCN(CCO)CCN(CCO)CCCCCCCCC(=O)OC(CC)CCCCC (stereo not shown) [YK-404, di(octan-3-yl) 9, 9′-(ethane-1,2-diyl-bis((2-hydroxyethyl)azanediyl))dinonanoate] | 743.68 | 668.71 | 695.92 | 2702.57 | 852.84 | 825.55 | 0.004
CCCCCCCCCCCOC(=O)CCCN(CCO)CCN(CCO)CCCCCCOC(=O)CC(CCCCCC)CCCCCC [YK-406, 6-((2-hydroxyethyl) (2-((2-hydroxyethyl)(4-(undecyloxy)-4-oxobutyl)amino)ethyl)amino)hexyl 3-hexylnonanoate] | 71.69 | 64.46 | 67.08 | 260.51 | 82.21 | 79.58 | 0.05
CCCCCCCCCCOC(=O)CCCCCN(CCO)CCN(CCO)CCCCCC(=O)OCCC(CCCCCC)CCCCCC [YK-411] | 703.28 | 632.39 | 658.12 | 2555.78 | 806.52 | 780.71 | 0.005
CCCCCCCCCCCOC(=O)CCCN(CCO)CCCN(CCO)CCCCCC(=O)OCC(CCCCCCCC)CCCCCCCC [YK-415, 2-octyldecyl 6-((2-hydroxyethyl)(3-((2-hydroxyethyl)(4-oxo-4-(undecyloxy)butyl)amino)propyl)amino)hexanoate] | 18.82 | 16.93 | 17.61 | 68.40 | 21.59 | 20.89 | 0.17
CCCCCCCCCCCOC(=O)CCCN(CCO)CCN(CCO)CCCCCC(=O)OC(CCCCCCCC)CCCCCCCC [YK-407] | 0.28 | 0.25 | 0.26 | 1.00 | 0.32 | 0.31 | 
CCCCCCCCCCOC(=O)CCCN(CCO)CCN(CCO)CCCCCC(=O)OC(CCCCCCCC)CCCCCCCC [YK-405, Heptadecan-9-yl 6-((2-hydroxyethyl)(2-((2-hydroxyethyl)(4-(decyloxy)-4-oxobutyl)amino)ethyl)amino)hexanoate] | 1.75 | 1.58 | 1.64 | 6.37 | 2.01 | 1.95 | 1.88
